In the supplement of paper PMC8728848:
The list shows a part of the results.

Tests used:
Experiment in all cases: glycan array binding signal (z-score within array); higher = stronger binding
Conditions in all cases: glycan notation: IUPAC condensed, linker removed
[1] = target: Fuc(a1-2)[GalNAc(a1-3)]Gal(b1-4)[Fuc(a1-3)]GlcNAc
In short: (§1)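 Columns mapping to the same glycan were averaged after glycan names were converted to IUPAC-condensed notation. The data come from 3228 arrays in the Consortium for Functional Glycomics database, limited to those with an available protein sequence. Binding is reported as a within-array Z-score averaged across arrays of one protein sequence and across linkers.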

[2] = target: Fuc(a1-2)[GalNAc(a1-4)]Gal(b1-4)GlcNAc
In short: as §1

[3] = target: Fuc(a1-2)[GalNAc(b1-3)]Gal
In short: as §1

[4] = target: Fuc(a1-3)GlcNAc
In short: as §1

[5] = target: Fuc(a1-3)[Gal(b1-4)]Glc6S
In short: as §1

[6] = target: Fuc(a1-3)[Gal(b1-4)]GlcNAc
In short: as §1

[7] = target: Fuc(a1-3)[Gal(b1-4)]GlcNAc(b1-2)Man(a1-3)[Fuc(a1-3)[Gal(b1-4)]GlcNAc(b1-2)Man(a1-6)]Man(b1-4)GlcNAc(b1-4)GlcNAc
In short: as §1

[8] = target: Fuc(a1-3)[Gal(b1-4)]GlcNAc(b1-2)Man(a1-6)[Gal(b1-4)GlcNAc(b1-2)Man(a1-3)]Man(b1-4)GlcNAc(b1-4)GlcNAc
In short: as §1

[9] = target: Fuc(a1-3)[Gal(b1-4)]GlcNAc(b1-3)Gal(b1-3)[Fuc(a1-4)]GlcNAc
In short: as §1

[10] = target: Fuc(a1-3)[Gal(b1-4)]GlcNAc(b1-4)Gal(b1-4)[Fuc(a1-3)]GlcNAc
In short: as §1

[11] = target: Fuc(a1-3)[Gal(b1-4)]GlcNAc(b1-4)Gal(b1-4)[Fuc(a1-3)]GlcNAc(b1-4)Gal(b1-4)[Fuc(a1-3)]GlcNAc
In short: as §1

[12] = target: Fuc(a1-3)[Gal(b1-4)]GlcNAc6S
In short: as §1

[13] = target: Fuc(a1-3)[Gal3S(b1-4)]Glc6S
In short: as §1

[14] = target: Fuc(a1-3)[Gal3S(b1-4)]GlcNAc
In short: as §1

[15] = target: Fuc(a1-3)[Gal3S(b1-4)]GlcNAc6S
In short: as §1

[16] = target: Fuc(a1-3)[GalNAc(b1-4)]GlcNAc
In short: as §1

[17] = target: Fuc(a1-4)GlcNAc
In short: as §1

[18] = target: Fuc(b1-3)GlcNAc
In short: as §1

[19] = target: Gal(a1-2)Gal
In short: as §1

[20] = target: Gal(a1-3)Gal
In short: as §1

[21] = target: Gal(a1-3)Gal(b1-3)GlcNAc
In short: as §1

[22] = target: Gal(a1-3)Gal(b1-4)Glc
In short: as §1

[23] = target: Gal(a1-3)Gal(b1-4)GlcNAc
In short: as §1

[24] = target: Gal(a1-3)Gal(b1-4)[Fuc(a1-3)]GlcNAc
In short: as §1

[25] = target: Gal(a1-3)GalNAc
In short: as §1

[26] = target: Gal(a1-3)[Gal(a1-4)]Gal(b1-4)GlcNAc
In short: as §1

[27] = target: Gal(a1-4)Gal(b1-4)Glc
In short: as §1

[28] = target: Gal(a1-4)Gal(b1-4)GlcNAc
In short: as §1

[29] = target: Gal(a1-4)GlcNAc
In short: as §1

[30] = target: Gal(a1-6)Glc
In short: as §1

[31] = target: Gal(b1-2)Gal
In short: as §1

[32] = target: Gal(b1-3)Gal
In short: as §1

[33] = target: Gal(b1-3)Gal(b1-4)GlcNAc
In short: as §1

[34] = target: Gal(b1-3)GalNAc
In short: as §1

[35] = target: Gal(b1-3)GalNAc(b1-3)Gal(a1-4)Gal(b1-4)Glc
In short: as §1

[36] = target: Gal(b1-3)GalNAc(b1-4)Gal(b1-4)Glc
In short: as §1

[37] = target: Gal(b1-3)GalNAc(b1-4)[Neu5Ac(a2-3)]Gal(b1-4)Glc
In short: as §1

[38] = target: Gal(b1-3)GlcNAc
In short: as §1

[39] = target: Gal(b1-3)GlcNAc(b1-2)Man(a1-3)[Gal(b1-3)GlcNAc(b1-2)Man(a1-6)]Man(b1-4)GlcNAc(b1-4)GlcNAc
In short: as §1

[40] = target: Gal(b1-3)GlcNAc(b1-3)Gal(b1-3)GlcNAc
In short: as §1

[41] = target: Gal(b1-3)GlcNAc(b1-3)Gal(b1-4)Glc
In short: as §1

[42] = target: Gal(b1-3)GlcNAc(b1-3)Gal(b1-4)GlcNAc
In short: as §1

[43] = target: Gal(b1-3)[Fuc(a1-4)]GlcNAc
In short: as §1

[44] = target: Gal(b1-3)[Fuc(a1-4)]GlcNAc(b1-3)Gal(b1-3)[Fuc(a1-4)]GlcNAc
In short: as §1

[45] = target: Gal(b1-3)[Fuc(a1-4)]GlcNAc(b1-3)Gal(b1-4)GlcNAc
In short: as §1

[46] = target: Gal(b1-3)[Fuc(a1-4)]GlcNAc(b1-3)Gal(b1-4)[Fuc(a1-3)]GlcNAc
In short: as §1

[47] = target: Gal(b1-3)[GlcNAc(b1-6)]GalNAc
In short: as §1

[48] = target: Gal(b1-3)[Neu5Ac(a2-6)]GalNAc
In short: as §1

[49] = target: Gal(b1-3)[Neu5Ac(a2-6)]GlcNAc(b1-6)Gal(b1-4)Glc
In short: as §1

[50] = target: Gal(b1-3)[Neu5Ac(b2-6)]GalNAc
In short: as §1

[51] = target: Gal(b1-4)GalNAc(a1-3)[Fuc(a1-2)]Gal(b1-4)GlcNAc
In short: as §1

[52] = target: Gal(b1-4)GalNAc(b1-3)[Fuc(a1-2)]Gal(b1-4)GlcNAc
In short: as §1

[53] = target: Gal(b1-4)Glc
In short: as §1

[54] = target: Gal(b1-4)Glc6S
In short: as §1

[55] = target: Gal(b1-4)GlcNAc
In short: as §1

[56] = target: Gal(b1-4)GlcNAc(a1-6)Gal(b1-4)GlcNAc
In short: as §1

[57] = target: Gal(b1-4)GlcNAc(b1-2)Man(a1-3)[Gal(b1-4)GlcNAc(b1-2)Man(a1-6)]Man(b1-4)GlcNAc(b1-4)GlcNAc
In short: as §1

[58] = target: Gal(b1-4)GlcNAc(b1-3)Gal(b1-3)GlcNAc
In short: as §1

[59] = target: Gal(b1-4)GlcNAc(b1-3)Gal(b1-4)Glc
In short: as §1

[60] = target: Gal(b1-4)GlcNAc(b1-3)Gal(b1-4)GlcNAc
In short: as §1

[61] = target: Gal(b1-4)GlcNAc(b1-3)Gal(b1-4)GlcNAc(b1-3)Gal(b1-4)GlcNAc
In short: as §1

[62] = target: Gal(b1-4)GlcNAc(b1-3)Gal(b1-4)[Fuc(a1-3)]GlcNAc(b1-3)Gal(b1-4)[Fuc(a1-3)]GlcNAc
In short: as §1

[63] = target: Gal(b1-4)GlcNAc(b1-3)GalNAc
In short: as §1

[64] = target: Gal(b1-4)GlcNAc(b1-3)[Gal(b1-4)GlcNAc(b1-6)]Gal(b1-4)GlcNAc
In short: as §1

[65] = target: Gal(b1-4)GlcNAc(b1-3)[GlcNAc(b1-6)]Gal(b1-4)GlcNAc
In short: as §1

[66] = target: Gal(b1-4)GlcNAc(b1-6)Gal(b1-4)GlcNAc
In short: as §1

[67] = target: Gal(b1-4)GlcNAc(b1-6)Gal(b1-4)GlcNAc(b1-6)GalNAc
In short: as §1

[68] = target: Gal(b1-4)GlcNAc(b1-6)GalNAc
In short: as §1

[69] = target: Gal(b1-4)GlcNAc(b1-6)[Gal(b1-3)]GalNAc
In short: as §1

[70] = target: Gal3S(b1-3)GalNAc
In short: as §1

[71] = target: Gal3S(b1-3)GlcNAc
In short: as §1

[72] = target: Gal3S(b1-3)[Fuc(a1-4)]GlcNAc
In short: as §1

[73] = target: Gal3S(b1-4)Glc
In short: as §1

[74] = target: Gal3S(b1-4)Glc6S
In short: as §1

[75] = target: Gal3S(b1-4)GlcNAc
In short: as §1

B1: MUC1-SEA-mFcIgG2a (Homo sapiens), P15941 (SEA domain only) (protein)
chain: DAAQPARRAVRSSSELTSEQKLISEEDLSRLVHNGTSARATTTPASKSTPFSIPSHHSDTPTTLASHSTKTDASSTHHSTVPPLTSSNHSTSPQLSTGVSFFFLSFHISNLQFNSSLEDPSTDYYQELQRDISEMFLQIYKQGGFLGLSNIKFRPGSVVVQLTLAFREGTINVHDVETQFNQYKTEAASRYNLTISDASVSDVPFPFSAQSGSDDDDKALEPRGPTIKPCPPCKCPAPNLLGGPSVFIFPPKIKDVLMISLSPIVTCVVVDVSEDDPDVQISWFVNNVEVHTAQTQTHREDYNSTLRVVSALPIQHQDWMSGKEFKCKVNNKDLPAPIERTISKPKGSVRAPQVYVLPPPEEEMTKKQVTLTCMVTDFMPEDIYVEWTNNGKTELNYKNTEPVLDSDGSYFMYSKLRVEKKNWVERNSYSCSVVHEGLHNHHTTKSFSRTPGKHHHHH
glycan array binding signal (z-score) [1]: -0.497 | glycan array binding signal (z-score) [2]: -0.184 | glycan array binding signal (z-score) [3]: -0.373 | glycan array binding signal (z-score) [4]: 0.737 | glycan array binding signal (z-score) [5]: -0.181 | glycan array binding signal (z-score) [6]: 0.485 | glycan array binding signal (z-score) [7]: 0.178 | glycan array binding signal (z-score) [8]: -0.32 | glycan array binding signal (z-score) [9]: -0.46 | glycan array binding signal (z-score) [10]: -0.399 | glycan array binding signal (z-score) [11]: -0.045 | glycan array binding signal (z-score) [12]: 0.148 | glycan array binding signal (z-score) [13]: 0.745 | glycan array binding signal (z-score) [14]: -0.378 | glycan array binding signal (z-score) [15]: 1.11 | glycan array binding signal (z-score) [16]: -0.109 | glycan array binding signal (z-score) [17]: -0.243 | glycan array binding signal (z-score) [18]: -0.021 | glycan array binding signal (z-score) [19]: -0.134 | glycan array binding signal (z-score) [20]: -0.29 | glycan array binding signal (z-score) [21]: -0.394 | glycan array binding signal (z-score) [22]: -0.099 | glycan array binding signal (z-score) [23]: -0.067 | glycan array binding signal (z-score) [24]: -0.449 | glycan array binding signal (z-score) [25]: -0.153 | glycan array binding signal (z-score) [26]: -0.03 | glycan array binding signal (z-score) [27]: 0.336 | glycan array binding signal (z-score) [28]: 0.335 | glycan array binding signal (z-score) [29]: -0.358 | glycan array binding signal (z-score) [30]: 0.204 | glycan array binding signal (z-score) [31]: 1.06 | glycan array binding signal (z-score) [32]: -0.043 | glycan array binding signal (z-score) [33]: -0.317 | glycan array binding signal (z-score) [34]: -0.147 | glycan array binding signal (z-score) [35]: -0.529 | glycan array binding signal (z-score) [36]: 0.472 | glycan array binding signal (z-score) [37]: -0.433 | glycan array binding signal (z-score) [38]: -0.294 | glycan array binding signal (z-score) [39]: -0.358 | glycan array binding signal (z-score) [40]: -0.473 | glycan array binding signal (z-score) [41]: -0.191 | glycan array binding signal (z-score) [42]: -0.319 | glycan array binding signal (z-score) [43]: -0.253 | glycan array binding signal (z-score) [44]: -0.122 | glycan array binding signal (z-score) [45]: -0.442 | glycan array binding signal (z-score) [46]: -0.598 | glycan array binding signal (z-score) [47]: -0.45 | glycan array binding signal (z-score) [48]: -0.066 | glycan array binding signal (z-score) [49]: -0.439 | glycan array binding signal (z-score) [50]: -0.316 | glycan array binding signal (z-score) [51]: -0.326 | glycan array binding signal (z-score) [52]: 0.806 | glycan array binding signal (z-score) [53]: -0.124 | glycan array binding signal (z-score) [54]: 0.371 | glycan array binding signal (z-score) [55]: -0.304 | glycan array binding signal (z-score) [56]: -0.059 | glycan array binding signal (z-score) [57]: -0.667 | glycan array binding signal (z-score) [58]: 0.367 | glycan array binding signal (z-score) [59]: -0.139 | glycan array binding signal (z-score) [60]: -0.367 | glycan array binding signal (z-score) [61]: -0.175 | glycan array binding signal (z-score) [62]: -0.289 | glycan array binding signal (z-score) [63]: -0.513 | glycan array binding signal (z-score) [64]: -0.22 | glycan array binding signal (z-score) [65]: -0.374 | glycan array binding signal (z-score) [66]: -0.164 | glycan array binding signal (z-score) [67]: -0.381 | glycan array binding signal (z-score) [68]: -0.197 | glycan array binding signal (z-score) [69]: -0.33 | glycan array binding signal (z-score) [70]: 0.226 | glycan array binding signal (z-score) [71]: -0.311 | glycan array binding signal (z-score) [72]: -0.332 | glycan array binding signal (z-score) [73]: 1.15 | glycan array binding signal (z-score) [74]: 2.09 | glycan array binding signal (z-score) [75]: -0.044
